{"source": "PubChem BioAssay (NCATS)", "note": "This list was built around the results that the source calls inconclusive (neither active nor inactive); the mix of calls is not that of the screen. Entries that show only a call come without a potency. Where the call is inconclusive, the potency comes from a doubtful curve fit. Active and inactive are the calls of the source. Calls come from the whole dose curve; as a rule, active = well fitted cell-killing curve with a large enough effect; inconclusive = small, poorly fitted or top-dose-only effect; inactive = flat fitted curve, though single readings scatter. Potency is the fitted concentration of half-maximal effect; tags give direction and shape of the fitted curve.", "data": [{"test": "qHTS of pediatric cancer cell lines to identify multiple opportunities for drug repurposing: Primary screen for TC32 cells (AID 1347089); note: nearly all actives have a fitted effect of over 60% in size", "settings": "TC32 Ewing sarcoma viability, CellTiter-Glo luminescence, 48 h; series mostly up to 45.8 µM", "how_it_was_run": "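TC32 cells, 500-1,000/well in growth medium, compound-treated 48 h at 37 °C; viability from CellTiter-Glo luminescence. Primary screen: MIPE 11-point (0.78 nM–46 µM final), NPC 8-point (0.59 nM–46 µM final); confirmatory at 11-point dilutions.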", "values": [{"molecule": "CC(=O)N(C)c1cccc(-c2ccnc3c(C(=O)c4cccs4)cnn23)c1", "Potency": "inactive"}, {"molecule": "CCCC1CCCCN1", "note": "(stereo unspecified)", "Potency": "inactive"}, {"molecule": "OC(O)C(Cl)(Cl)Cl", "Potency": "inactive"}, {"molecule": "C[C@]12CC[C@H]3[C@@H](CC[C@@]45O[C@H]4C(O)=C(C#N)C[C@]35C)[C@H]1CC[C@H]2O", "Potency": "inconclusive: 37 µM [cytotoxic, single point]"}, {"molecule": "Cc1nnc2n1-c1sc(CCc3ccc(CC(C)C)cc3)cc1C(c1ccccc1Cl)=NC2C", "note": "(stereo unspecified)", "Potency": "inconclusive: 33.3 µM [cytotoxic, partial curve, poor fit]"}, {"molecule": "CO[C@]12CC[C@@]3(C[C@@H]1[C@](C)(O)C(C)(C)C)[C@@H]1Cc4ccc(O)c5c4[C@@]3(CCN1CC1CC1)[C@H]2O5", "Potency": "inconclusive: 67.9 µM [cytotoxic, single point]"}]}]}
